# According to the supplement of paper PMC4967469:
# The IC50 comes from the fitted curve, where viability falls to half of the control; where the fit passes the top or lowest dose, that dose stands as a limit. AUC, from the same fit, is the share of area under the viability curve across the 256-fold dose range: 1 means no effect, lower means more sensitive. For part of these data: The top dose, if marked as inferred, comes from the curve model; the source does not state it. For part of these data: An entry number marks a drug with two screens in the source, which often give different values.
# Tests used:
# Experiment in all cases: Viability of human cancer cell lines after 72 h of drug (GDSC screen)
# OSU-03012 = compound: NCC(=O)Nc1ccc(-n2nc(C(F)(F)F)cc2-c2ccc3c(ccc4ccccc43)c2)cc1 [OSU-03012]; conditions: top dose 16 µM; top dose inferred
# Description: (§1)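 Human cancer cell lines in 384-well plates, medium with 10% serum, drug for 72 h over a 256-fold dose range (nine 2-fold or five 4-fold steps up to the top dose). Adherent lines were fixed and stained with the nucleic acid dye Syto60, suspension lines read with resazurin; signal relative to control wells, capped at 0 and 100%. One two-parameter sigmoid per drug and line, fitted in a mixed model over all curves with the slope shared within a line.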
# QS11 = compound: OC[C@H](Cc1ccccc1)Nc1nc(Oc2ccc3c(c2)CCC3)nc2c1ncn2Cc1ccc(-c2ccccc2)cc1 [QS11]; conditions: top dose 10.24 µM
# Description: as §1
# CUDC-101 = compound: C#Cc1cccc(Nc2ncnc3cc(OC)c(OCCCCCCC(=O)NO)cc23)c1 [CUDC-101]; conditions: top dose 5.12 µM; top dose inferred
# Description: as §1
# AC220 = compound: CC(C)(C)c1cc(NC(=O)Nc2ccc(-c3cn4c(n3)sc3cc(OCCN5CCOCC5)ccc34)cc2)no1 [AC220]; conditions: top dose 1.024 µM; top dose inferred
# Description: as §1
# RDEA119 = compound: COc1cc(F)c(F)c(Nc2ccc(I)cc2F)c1NS(=O)(=O)C1(C[C@H](O)CO)CC1 [RDEA119]; conditions: top dose 5 µM, top dose inferred
# Description: as §1
# 5-Fluorouracil = compound: O=c1[nH]cc(F)c(=O)[nH]1 [5-Fluorouracil]; conditions: top dose 32 µM; top dose inferred
# Description: as §1
# JNK-9L = compound: Fc1cc(-c2ccnc(Nc3ccc(-n4cnc(N5CCOCC5)n4)cc3)n2)cc(N2CCOCC2)c1 [JNK-9L]; conditions: top dose 5.12 µM; top dose inferred
# Description: as §1
Cell Line,AUC (OSU-03012),IC50 (OSU-03012) [nM],AUC (QS11),IC50 (QS11) [nM],AUC (CUDC-101),IC50 (CUDC-101) [nM],AUC (AC220),IC50 (AC220) [nM],AUC (RDEA119; screen: GDSC drug entry 1014),IC50 (RDEA119; screen: GDSC drug entry 1014) [nM],AUC (RDEA119; screen: GDSC drug entry 1526),IC50 (RDEA119; screen: GDSC drug entry 1526) [nM],AUC (5-Fluorouracil),IC50 (5-Fluorouracil) [nM],AUC (JNK-9L),IC50 (JNK-9L) [nM]
"SCH (stomach, adherent)",0.988,> 16000,0.988,> 10200,0.95,> 5120,0.988,> 1020,0.955,> 5000,0.986,> 5000,0.988,> 32000,0.858,4740
"LC4-1 (lymphoblastic leukaemia, suspension)",0.767,6580,0.954,> 10200,0.33,102,0.908,> 1020,0.952,> 5000,0.953,> 5000,0.726,9520,0.507,336
"KU-19-19 (bladder, adherent)",0.984,> 16000,0.956,> 10200,0.653,850,0.987,> 1020,0.346,117,0.573,495,0.982,> 32000,0.781,2120
"NCI-H23 (lung adenocarcinoma, adherent)",0.877,15800,0.987,> 10200,0.815,2780,0.968,> 1020,0.885,> 5000,0.791,2230,0.89,> 32000,0.747,1630
"MS-1 (small cell lung carcinoma, suspension)",0.848,10000,0.928,> 10200,0.321,108,0.975,> 1020,0.986,> 5000,0.99,> 5000,0.619,4080,0.808,2320
"KYSE-510 (oesophagus, adherent)",0.501,1010,0.779,3470,0.661,820,0.991,> 1020,0.964,> 5000,0.962,> 5000,0.856,19300,0.575,493
"UACC-893 (breast, adherent)",0.932,> 16000,0.968,> 10200,0.795,3340,0.959,> 1020,0.913,> 5000,0.876,> 5000,0.906,> 32000,0.869,> 5120
"KE-37 (lymphoblastic leukaemia, suspension)",0.5,1000,0.871,5970,0.337,127,0.979,> 1020,0.977,> 5000,0.994,> 5000,0.62,3930,0.459,254
"BV-173 (chronic myeloid leukaemia, suspension)",0.837,8950,0.979,> 10200,0.187,43.4,0.95,> 1020,0.735,1320,0.873,3830,0.424,1270,0.67,892
"CHSA0011 (chondrosarcoma, adherent)",0.98,> 16000,0.98,> 10200,0.852,> 5120,0.954,> 1020,0.786,3160,0.687,1300,0.96,> 32000,0.878,> 5120
"JHH-1 (liver, adherent)",0.688,3540,0.957,> 10200,0.114,< 20,0.985,> 1020,0.507,327,0.563,473,0.8,17100,0.678,1050
"TE-8 (oesophagus, adherent)",0.444,695,0.745,3430,0.974,> 5120,0.985,> 1020,0.699,1190,0.783,2270,0.732,9710,0.6,614
"GP5d (large intestine, adherent)",0.785,6110,0.984,> 10200,0.586,534,0.948,> 1020,–,–,0.877,4120,0.909,> 32000,0.526,374
"SBC-3 (small cell lung carcinoma, adherent)",0.572,1540,0.943,> 10200,0.292,88.7,0.97,> 1020,0.982,> 5000,0.93,> 5000,0.502,2020,0.308,98.3
"WSU-DLCL2 (B-cell lymphoma, suspension)",0.865,10300,0.993,> 10200,0.877,3670,0.992,> 1020,0.992,> 5000,0.992,> 5000,0.976,> 32000,0.966,> 5120
"A204 (rhabdomyosarcoma, adherent)",0.747,6420,0.939,> 10200,0.603,669,0.807,723,–,–,0.869,> 5000,0.786,18300,0.41,169
"NCI-H2170 (lung squamous cell carcinoma, adherent)",0.723,4460,0.904,> 10200,0.785,2300,0.983,> 1020,–,–,0.985,> 5000,0.903,> 32000,0.545,428

Cell Line,AUC (OSU-03012),IC50 (OSU-03012) [nM],AUC (QS11),IC50 (QS11) [nM],AUC (CUDC-101),IC50 (CUDC-101) [nM],AUC (AC220),IC50 (AC220) [nM],AUC (RDEA119; screen: GDSC drug entry 1014),IC50 (RDEA119; screen: GDSC drug entry 1014) [nM],AUC (RDEA119; screen: GDSC drug entry 1526),IC50 (RDEA119; screen: GDSC drug entry 1526) [nM],AUC (5-Fluorouracil),IC50 (5-Fluorouracil) [nM],AUC (JNK-9L),IC50 (JNK-9L) [nM]
"KYSE-140 (oesophagus, adherent)",0.567,1570,0.818,6800,0.977,> 5120,0.983,> 1020,0.847,4420,–,–,0.982,> 32000,0.59,583
"NCI-SNU-1 (stomach, suspension)",0.788,7260,0.914,> 10200,0.495,310,0.952,> 1020,0.977,> 5000,0.95,> 5000,0.721,8690,0.57,499
"SU-DHL-4 (B-cell lymphoma, suspension)",0.747,3970,0.979,> 10200,0.191,56.1,0.997,> 1020,0.997,> 5000,0.997,> 5000,0.943,29000,0.573,481
"RERF-LC-Sq1 (lung squamous cell carcinoma, adherent)",0.859,> 16000,0.979,> 10200,0.685,1350,0.978,> 1020,0.757,2510,0.719,1780,0.899,> 32000,0.904,> 5120
"NCI-H522 (lung adenocarcinoma, adherent)",0.722,4850,0.94,> 10200,0.304,80.6,0.98,> 1020,0.981,> 5000,0.944,> 5000,0.967,> 32000,0.701,1320
"SiHa (cervix, adherent)",0.986,> 16000,0.986,> 10200,0.972,> 5120,0.987,> 1020,0.937,> 5000,0.907,> 5000,0.987,> 32000,0.705,1340
"NCI-H847 (small cell lung carcinoma, adherent)",0.763,4770,0.849,5570,0.258,76.9,0.97,> 1020,0.99,> 5000,0.981,> 5000,0.918,> 32000,0.718,1150
"COLO-783 (melanoma, adherent)",0.991,> 16000,0.987,> 10200,0.761,1750,0.99,> 1020,0.741,1480,0.798,2280,0.99,> 32000,0.918,> 5120
"SU-DHL-6 (B-cell lymphoma, suspension)",0.642,2220,0.864,5390,0.175,49.1,0.968,> 1020,0.976,> 5000,0.994,> 5000,0.737,7610,0.512,342
"NKM-1 (acute myeloid leukaemia, suspension)",0.803,8230,0.896,> 10200,0.369,137,0.173,6.29,0.739,1540,0.769,1940,0.404,1080,0.546,–
"NCI-H747 (large intestine, adherent)",0.672,3370,0.96,> 10200,0.642,866,0.975,> 1020,0.621,724,0.427,189,0.816,22900,0.659,979
"KALS-1 (glioma, adherent)",0.797,11000,0.841,> 10200,0.62,773,0.976,> 1020,–,–,0.722,1710,0.847,> 32000,0.592,628
"NCI-H1975 (lung adenocarcinoma, adherent)",0.738,5350,0.983,> 10200,0.708,1360,0.983,> 1020,0.773,2230,0.826,3620,0.772,14200,0.438,212
"GI-1 (glioma, adherent)",0.798,7240,0.802,4800,0.455,242,0.986,> 1020,0.929,> 5000,0.933,> 5000,0.81,16000,0.456,245
"CHP-212 (neuroblastoma, adherent)",0.779,6000,0.923,> 10200,0.312,100,0.985,> 1020,0.122,22.1,–,–,0.76,10500,0.494,309
"COLO-684 (endometrium, suspension)",0.771,6920,0.912,> 10200,0.556,463,0.924,> 1020,0.977,> 5000,0.976,> 5000,0.71,8520,0.602,633
"TC-71 (Ewing sarcoma, adherent)",0.891,13100,0.992,> 10200,0.461,256,0.947,> 1020,0.973,> 5000,0.992,> 5000,0.842,17100,0.703,1060
